The list shows a part of the results. Values were computed here from the reads of four pooled replicates and scatter widely.
target: T1, Pho4 (S. cerevisiae) (UniProt P07270); test: relative binding free energy (BET-seq); higher = weaker binding; conditions: reference: library average
T1 sequence: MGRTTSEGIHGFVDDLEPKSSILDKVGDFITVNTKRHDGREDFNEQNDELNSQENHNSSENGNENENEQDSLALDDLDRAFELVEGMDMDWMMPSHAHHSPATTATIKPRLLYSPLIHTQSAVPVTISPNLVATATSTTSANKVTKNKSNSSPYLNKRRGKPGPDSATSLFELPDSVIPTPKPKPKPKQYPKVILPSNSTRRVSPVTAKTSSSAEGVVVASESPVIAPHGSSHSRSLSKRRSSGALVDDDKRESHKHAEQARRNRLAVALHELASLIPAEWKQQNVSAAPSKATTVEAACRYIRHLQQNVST

Sequence | relative binding free energy [kcal/mol]
GGGAGCACGTGGGACA | -0.08
TGAGACACGTGCAGGG | 0.08
CAAGGCACGTGGGTTT | -0.16
GCTATCACGTGGTGGA | 0.06
ACGGGCACGTGGCGGT | -0.23
AGTTTCACGTGTTCAA | 0.19
AGTTGCACGTGGGTTA | -0.09
ATGTGCACGTGGATTC | -0.05
TTTGGCACGTGCCTGT | -0.16
ATTTTCACGTGGGAGT | 0.06
TATGGCACGTGGGCGC | -0.13
GGTTGCACGTGCTACG | 0.13
TCTAACACGTGGGGTG | -0.05
GGCCGCACGTGGTGGT | -0.1
GTTATCACGTGTGAGT | 0.29
TCGGGCACGTGTTTAG | 0.08
CGTGGCACGTGGTAGT | -0.27
ATATTCACGTGACGTT | 0.19
TGGTCCACGTGTAGTA | 0.12
GGTTGCACGTGGTATC | 0.08
TTTAACACGTGGGTAA | -0.14
GTTCTCACGTGGATAG | 0.27
TCAGTCACGTGGTGAT | 0.01

Sequence | relative binding free energy [kcal/mol]
GTGTTCACGTGTTATC | 0.26
GTGATCACGTGTGGAG | 0.21
AGGCGCACGTGAGGGA | 0.05
TGTTGCACGTGTCGTA | -0.07
CAGGCCACGTGGTAGG | -0.1
AGATACACGTGTTATT | -0.05
CGGGGCACGTGGATTA | -0.1
TACTGCACGTGTGGTA | -0.09
GGGGGCACGTGGTTAA | -0.09
TTTATCACGTGATAGA | 0.24
TATATCACGTGGGTTG | 0
GTATCCACGTGGGTAG | -0.1
GTTTGCACGTGCTCGG | -0.14
TTAGGCACGTGGAAGA | 0.04
CAGAACACGTGGGGGT | -0.13
GTTGGCACGTGGGCGG | -0.24
TGGCGCACGTGATGCT | 0.02
TGGCGCACGTGTTAGA | 0.03
GTCTGCACGTGATATG | 0.14
AGGAACACGTGTTGGA | -0.11
TGGTGCACGTGTTCGC | -0.01
TGTGGCACGTGATGCT | -0.12
AAGCTCACGTGGATTT | 0.31

Sequence | relative binding free energy [kcal/mol]
GTTTTCACGTGGATGT | 0.42
TCTTGCACGTGTAGGC | 0.12
GTGGTCACGTGTGAAC | 0.38
GGGGGCACGTGCCTGA | -0.15
CTTCTCACGTGTGTGG | 0.34
TTATGCACGTGGCTTG | -0.15
GGTGGCACGTGTAAGG | 0.02
ACTGGCACGTGAAGGG | 0.17
TCGGACACGTGGCGTT | 0.08
GGTGGCACGTGGGTGT | -0.12
CGGGGCACGTGTCGCG | -0.12
TGGTGCACGTGCTTAT | -0.09
GGGTACACGTGTCAGT | 0.19
GGAATCACGTGGTAAT | 0.19
GGGTTCACGTGAAGCT | 0.45
TGGTACACGTGATTTG | 0.31
TAAATCACGTGATGCT | 0.29
CTCGGCACGTGCGTGG | -0.13
TTGTTCACGTGTCTTA | 0.37
GTTGGCACGTGAGCGC | 0.13
GTTGGCACGTGGCCTT | -0.12
GGGGTCACGTGAAGTC | 0.46
AATTGCACGTGGAATG | 0.12

Sequence | relative binding free energy [kcal/mol]
TGGTACACGTGGGAGA | 0.01
CGTTGCACGTGGTGTA | -0.08
TTTGCCACGTGATTAG | 0.05
AGAGTCACGTGTTTAA | 0.09
GTAGTCACGTGGCGCG | 0.1
TTGGCCACGTGACTGG | 0.13
CATGTCACGTGAAGTA | 0.35
CTGTGCACGTGGGTGA | -0.15
GTGTGCACGTGACAAG | 0.25
GTTTGCACGTGTTCGC | 0.02
GGTCACACGTGGCGAG | 0.1
TTAGGCACGTGGATTG | -0.12
TGCTCCACGTGGTGGT | -0.09
GGGTTCACGTGGATGA | 0.36
ATGTGCACGTGCGATG | -0.07
GGGTACACGTGGTGAG | 0.06
TAGTTCACGTGAGTAG | 0.42
GGAGACACGTGCAGGG | -0.12
GGCTTCACGTGGCGGT | 0.25
TGGGCCACGTGGGCAG | -0.14
ATTGCCACGTGTCGGG | 0
GAGATCACGTGGGGTG | -0.02
ATTTTCACGTGTGAGC | 0.35

Sequence | relative binding free energy [kcal/mol]
TGGGCCACGTGAATTT | 0.33
GTTGGCACGTGTTCAG | -0.06
GGGGTCACGTGACAAG | 0.19
TGGCACACGTGGTGGA | -0.08
AGGATCACGTGGGTCG | 0.01
AGTTTCACGTGGGACA | 0.21
CGTCTCACGTGTATTT | 0.32
AATCGCACGTGGGTGA | -0.15
GTTGGCACGTGCGACG | -0.15
TATCACACGTGTAGGT | 0.09
GGGGTCACGTGAATCT | 0.52
ATGTGCACGTGATTTA | 0.14
GATAGCACGTGCGTTA | 0.09
GGTCTCACGTGGCGGT | 0.09
TTTGTCACGTGTGTAA | 0.08
AGGGTCACGTGTGTCG | 0.17
TTTTTCACGTGGTGCG | 0.33
AAGTGCACGTGGAGAG | 0.1
GATGGCACGTGTGGAA | 0.08
AGTCGCACGTGCGGGT | -0.1
CTTTCCACGTGGGTTG | 0.04
ATTGGCACGTGACGAG | 0.07
ATGGTCACGTGTGGGA | 0.14
